{"source": "patent US20050095240A1", "about": "“NaCT as a target for lifespan expansion and weight reduction” (Medical College of Georgia Research, priority 2002, published 2005)", "data": [{"target": "drIndy (Drosophila melanogaster, UniProt Q9VVT2)", "sequence (Q9VVT2 19-590)": "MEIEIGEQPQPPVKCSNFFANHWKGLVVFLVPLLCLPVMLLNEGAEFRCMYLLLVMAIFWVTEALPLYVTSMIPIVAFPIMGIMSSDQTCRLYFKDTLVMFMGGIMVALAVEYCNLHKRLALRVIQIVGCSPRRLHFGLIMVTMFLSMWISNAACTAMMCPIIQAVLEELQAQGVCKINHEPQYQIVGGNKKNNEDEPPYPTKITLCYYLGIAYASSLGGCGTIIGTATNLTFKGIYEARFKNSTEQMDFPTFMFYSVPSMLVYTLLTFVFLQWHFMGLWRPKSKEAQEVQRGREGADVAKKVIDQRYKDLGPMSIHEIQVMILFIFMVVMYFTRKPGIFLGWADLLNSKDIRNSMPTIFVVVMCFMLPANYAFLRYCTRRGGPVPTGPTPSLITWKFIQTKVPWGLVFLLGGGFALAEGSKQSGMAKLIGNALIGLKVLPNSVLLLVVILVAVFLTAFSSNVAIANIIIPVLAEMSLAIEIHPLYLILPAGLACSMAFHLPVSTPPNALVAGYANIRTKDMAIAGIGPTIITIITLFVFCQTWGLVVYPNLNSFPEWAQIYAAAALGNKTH", "settings": "not given", "units": {"Fold Increase of succinate uptake (drIndy vs vector)": "fold"}, "values": [{"smiles": "[Cl-].[K+]", "note": "[KCl]", "Fold Increase of succinate uptake (drIndy vs vector)": 15.9}]}, {"target": "drIndy (Drosophila melanogaster, UniProt Q9VVT2)", "settings": "succinate 40 nM; drIndy cDNA-transfected HRPE cells; indicated salt 140 mM or mannitol 280 mM; pH 7.5", "units": {"Succinate uptake, drIndy": "fmol/10^6 cells per min"}, "values": [{"smiles": "O=C([O-])[C@H](O)[C@@H](O)[C@H](O)[C@H](O)CO.[Na+]", "note": "[Sodium gluconate]", "Succinate uptake, drIndy": "76.6 ± 2.6"}, {"smiles": "[Cl-].[Li+]", "note": "[LiCl]", "Succinate uptake, drIndy": "122.3 ± 4.3"}, {"smiles": "OC[C@@H](O)[C@@H](O)[C@H](O)[C@H](O)CO", "note": "[Mannitol]", "Succinate uptake, drIndy": "83.3 ± 7.1"}, {"smiles": "CNC[C@H](O)[C@@H](O)[C@H](O)[C@H](O)CO.Cl", "note": "[NMDG chloride, N-methyl-D-glucamine chloride]", "Succinate uptake, drIndy": "84.7 ± 10.0"}, {"smiles": "[Cl-].[Na+]", "note": "[NaCl]", "Succinate uptake, drIndy": "118.0 ± 7.8"}]}]}
